According to the supplement of paper PMC9174493:
Counter-ions that a name gives are not always drawn. The list shows a part of the results. Single values of this set are uncertain. Values with irradiation are relative to irradiated vehicle.

test system: A549-Dual; test: ISRE reporter (Lucia luciferase) activity, viability-corrected, relative to vehicle (fold change vs vehicle); higher = more activation of STING-IRF / NF-kB immune response reporter; details: 10 µM; irradiation: none

| Structure (SMILES) | ISRE reporter |
| --- | --- |
| CC(=O)C1CCC2C3CCC4=CC(=O)CCC4(C)C3CCC12C (stereo unspecified) [Progesterone] | 0.443 |
| NCCCC(O)(P(=O)(O)O)P(=O)(O)[O][Na].O.O.O (stereo unspecified) [Alendronate sodium trihydrate] | 0.639 |
| Cc1cc2c(cc1S(N)(=O)=O)S(=O)(=O)CCC2 [Meticrane] | 0.694 |
| Cc1cc(NS(=O)(=O)c2ccc(N)cc2)no1 [Sulfamethoxazole] | 0.771 |
| COc1ccc(NS(=O)(=O)c2ccc(N)cc2)nn1 [Sulfamethoxypyridazine] | 0.828 |
| Cc1ccccc1N1CCN(CCc2nnc3n2CCCC3)CC1.Cl [Dapiprazole Hydrochloride] | 0.719 |
| Cc1c(C)c2c(c(C)c1O)CCC(C)(COc1ccc(CC3SC(=O)NC3=O)cc1)O2 (stereo unspecified) [Troglitazone (CS-045)] | 0.504 |
| Cl.NCc1ccc(S(N)(=O)=O)cc1 [Mafenide hydrochloride] | 0.864 |
| CC(C)(CO)C(O)C(=O)NCCC(=O)[O-].[Na+] [D-Pantothenate Sodium] | 0.515 |
| CCCCOCc1ccc(O)c(OC)c1 [Vanillyl Butyl Ether] | 0.558 |
| CC(C)=C1C/C=C(\C)CC/C=C(\C)CC1=O [Germacrone] | 0.805 |
| COc1ccc2cc(C(=O)O)ccc2c1 [6-Methoxy-2-naphthoic acid] | 0.406 |
| Clc1ccc(C(Cn2ccnc2)OCc2ccc(Sc3ccccc3)cc2)c(Cl)c1.O=[N+]([O-])O (stereo unspecified) [Fenticonazole Nitrate] | 0.582 |
| CC(NC(CCc1ccccc1)C(=O)O)C(=O)N1CCCC1C(=O)O.O.O (stereo unspecified) [Enalaprilat Dihydrate] | 0.821 |
| O=C1CCCC(=O)C1C(=O)c1ccc(C(F)(F)F)cc1[N+](=O)[O-] [Nitisinone] | 0.523 |
| C=C1/C(=C\C=C2/CCC[C@]3(C)[C@@H]([C@H](C)/C=C/[C@H](C)C(C)C)CC[C@@H]23)C[C@@H](O)C[C@@H]1O [Doxercalciferol] | 0.644 |
| NC(=O)NC(CCC(=O)O)C(=O)O (stereo unspecified) [Carglumic Acid] | 0.799 |
| COCCCOc1ccnc(CS(=O)c2nc3ccccc3[n]2[Na])c1C (stereo unspecified) [Rebeprazole sodium] | 0.61 |

| Structure (SMILES) | ISRE reporter |
| --- | --- |
| CC1(C)NC(=O)N(c2ccc([N+](=O)[O-])c(C(F)(F)F)c2)C1=O [Nilutamide] | 0.636 |
| CC(=O)Oc1cc(C(C)C)c(OCCN(C)C)cc1C.Cl [Moxisylyte hydrochloride] | 0.726 |
| NC(=O)CC(N)C(=O)O.O (stereo not drawn) [L(+)-Asparagine monohydrate] | 0.753 |
| CC(NCc1ccc(OCc2cccc(F)c2)cc1)C(N)=O (stereo unspecified) [Safinamide] | 0.753 |
| CCc1ccc(CCOc2ccc(CC3SC(=O)NC3=O)cc2)nc1.Cl (stereo unspecified) [Pioglitazone HCl] | 0.81 |
| CNCCc1ccccn1.CS(=O)(=O)O.CS(=O)(=O)O [Betahistine mesylate] | 0.637 |
| O=c1c(-c2ccc(O)cc2)coc2cc(OC3OC(CO)C(O)C(O)C3O)ccc12 (stereo unspecified) [Daidzin] | 1.09 |
| N[C@@H](CCC(=O)O)C(=O)O [(S)-Glutamic acid] | 0.285 |
| COC(=O)Nc1nc2ccc(C(=O)c3ccc(F)cc3)cc2[nH]1 [Flubendazole] | 1.38 |
| CCCNCC(O)COc1ccccc1C(=O)CCc1ccccc1 (stereo unspecified) [Propafenone HCl] | 1.26 |
| CCCCCCCCCCCCCCCCOP(=O)([O-])OCC[N+](C)(C)C [Miltefosine] | 0.93 |
| O=C1Nc2ccccc2C1=O [Isatin] | 0.497 |
| C#CCN(C)Cc1ccccc1.Cl [Pargyline hydrochloride] | 0.529 |
| CC12CC3CC(C)(C1)CC(N)(C3)C2.Cl [Memantine HCl] | 0.763 |
| CC(C)OC(=O)C(C(=O)OC(C)C)=C1SC=CS1 [Malotilate] | 0.831 |
| COc1cc(Cc2cnc(N)nc2N)cc(OC)c1OC [Trimethoprim] | 0.799 |
| CN(CCN1CCC(OC(=O)Nc2ccccc2-c2ccccc2)CC1)C(=O)c1ccc(CN2CCC(C(N)=O)CC2)cc1 [Revefenacin] | 1.07 |
| Nc1c2c(nc3ccccc13)CCCC2 [Tacrine hydrochloride hydrate] | 0.497 |
